Out of some 110,000 compounds screened, about 40 (0.04%) were called active. Inconclusive means that the source gave no clear call. Such entries were picked first, then a sample of the others. Calls follow the shape of the dose curve; as a rule, active = well fitted curve in the direction sought with a large enough effect in the signal ratio (not every such curve was filed as active); inconclusive = small, poorly fitted or top-dose-only effect, or a change in a side signal; inactive = flat fitted curve, though single readings scatter; the % refers to the signal ratio. Where the call is inconclusive, the potency comes from a doubtful curve fit.
test: IkB Signaling; conditions: ABC-DLBCL IkBa-CBG/CBR dual luciferase ratio (green luciferase fused to IkBa over red control in OCI-Ly3 lymphoma cells), 4 h; IkBa stabilization activation: at 57.1 µM (top of the series), scaled: untreated 0%, proteasome inhibitor 100% unless noted;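 as to IkBa stabilization activation: 0% = basal untreated cells and 100% = reference inhibitor full response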
Outline: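 In this assay, an IκBα–CBG68 fusion accumulates when IKK-driven degradation is blocked; native CBR normalizes for cell number. OCI-Ly3 cells were treated 4 h with compound and doxycycline, then green and red light read after Chroma-Glo addition.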
Potency is read from the fitted curve at half-maximal effect.

SMILES | IkBa stabilization activation | Potency
CCCn1c(N2CCC(Cc3ccccc3)CC2)nc2c1c(=O)[nH]c(=O)n2C | inconclusive: -6.03% [signal inhibitor] | –
O=C(O)CCc1ccc(-c2ccccc2)n1-c1cccc(Br)c1 | inconclusive: 11% [signal inhibitor] | –
Cc1ccc(S(=O)(=O)N[C@@H](Cc2ccccc2)C(=O)CCl)cc1 | – | inconclusive: 39.8 µM [signal inhibitor, partial curve, poor fit]
COc1cc(/C=C/c2nc(C#N)c(NC(C)c3ccccc3)o2)cc(OC)c1OC (stereo unspecified) | inconclusive: 2.94% [signal inhibitor] | –
COc1cccc(-c2ccc3ncnc(NCc4ccccc4OC)c3c2)c1 | inconclusive: 6.3% [signal inhibitor] [at 11.4 µM, scaled: untreated 0%, proteasome inhibitor 100%] | –
CCCOC(=O)CN1C(=O)c2ccc(C(=O)OCCC)cc2C1=O | inactive | –
CN(Cc1ccccc1)C(=O)c1cc2c(s1)-c1ccc(Cl)cc1SC2 | inconclusive: -1.91% [signal inhibitor] | –
COc1ccc(CNC(=O)Nc2cccc(C)c2)cc1 | inactive | –
Cc1ccc(NC(=O)CCSc2nc(-c3ccc4c(c3)OCO4)cc(C(F)(F)F)n2)cc1 | inactive | –
CCN(c1ccccc1)S(=O)(=O)c1ccc(NCC2COc3ccccc3O2)nc1 (stereo unspecified) | inconclusive: 5.96% [signal inhibitor] | –
CCOC(=O)CCN(c1ccccc1)S(=O)(=O)c1ccc2[nH]c(=O)ccc2c1 | inconclusive: 1.14% [signal inhibitor] | –
O=C(c1ccc(Cl)cc1)n1nc(-c2ccco2)nc1NCc1cccs1 | inconclusive: 0.886% [signal inhibitor] | –
CCc1ccc(Oc2nc3c(C)cccn3c(=O)c2/C=C(\C#N)c2nc3ccccc3s2)cc1 | – | inconclusive: 5.01 µM [signal inhibitor, partial curve]
CN(C)c1ccc(-c2cncnc2Nc2ccc(F)cc2)cc1 | inconclusive: 18% [signal inhibitor] [at 11.4 µM, scaled: untreated 0%, proteasome inhibitor 100%] | –
Cc1ccc2oc(C(=O)N(Cc3cccc(F)c3)C3CCS(=O)(=O)C3)c(C)c2c1 (stereo unspecified) | inconclusive: -0.936% [signal inhibitor] | –
Clc1ccc(OCc2nc(-c3ccncc3)no2)c(Cl)c1 | inconclusive: 7.9% [signal inhibitor] | –
Cc1nc2ccc(NC(=O)c3ccc(S(=O)(=O)N4CCOCC4)cc3)cc2s1 | inactive | –
Cc1ccc(N(CC(C)C)S(=O)(=O)c2nnc(NC(=O)c3ccco3)s2)cc1 | inactive | –
O=C(COC(=O)C(Cc1c[nH]c2ccccc12)NC(=O)c1ccc(Br)cc1)c1ccc(Cl)cc1 (stereo unspecified) | inconclusive: -0.303% [signal inhibitor] | –
Cc1ccc2[nH]c3c(c2c1)CN(C(=O)CN1CCN(c2cccc(C)c2C)CC1)CC3 | inconclusive: 2.61% [signal inhibitor] | –
CSc1cccc(-c2nnc(NC(=O)c3ccc4c(c3)OCCO4)o2)c1 | inconclusive: 7.23% [signal inhibitor] | –
Oc1ccc2cc(SSc3ccc4cc(O)ccc4c3)ccc2c1 | – | inconclusive: 39.8 µM [rising, partial curve]

SMILES | IkBa stabilization activation | Potency
O=C(CCc1cn(Cc2ccccc2F)c2ccccc12)NCc1ccc(Cl)cc1 | inconclusive: 0.396% [signal inhibitor] | –
COc1ccc(-c2ccc(NS(=O)(=O)c3cccc(Cl)c3)cc2)nn1 | inconclusive: 2.75% [signal inhibitor] | –
O=C(c1cn(CCOc2ccccc2F)c2ccccc12)C1CCCCC1 | inconclusive: 4.85% [signal inhibitor] | –
COc1ccc(NC(=O)CSc2oc(-c3cccs3)nc2S(=O)(=O)c2ccc(Br)cc2)c(OC)c1 | inconclusive: -3.42% [signal inhibitor] | –
COc1ccc(NC(=O)c2ccccc2NC(=O)C2CCCO2)cc1 (stereo unspecified) | – | inconclusive: 25.1 µM [signal inhibitor, partial curve]
CCN(CC)CCOC(=O)c1ccc(NC(=O)COc2cc(=O)n(CC)c3ccccc23)cc1 | inactive | –
Cc1ccc(Nc2sc(C(=O)c3ccccc3)c(N)c2C(=O)NC(C)C)cc1 | inconclusive: 0.266% [signal inhibitor] | –
Cc1cccc(Cn2cc(C(=O)c3ccccc3)c(=O)c3cc4c(cc32)OCO4)c1 | inconclusive: 0.851% [signal inhibitor] | –
COc1ccccc1-c1cc(C(=O)NCc2ccc(F)cc2)no1 | inconclusive: 4.89% [signal inhibitor] | –
COc1ccccc1N1CCN(C(=O)c2sc3nc4n(c(=O)c3c2C)CCC4)CC1 | inconclusive: 2.04% [signal inhibitor] | –
CCOc1ccc(C(=O)c2cn(Cc3ccccc3OC)c3cc4c(cc3c2=O)OCCO4)cc1 | inconclusive: -0.833% [signal inhibitor] | –
CCn1c(=O)n(CC(=O)NC2CCCC(C)C2C)c(=O)c2ccccc21 (stereo unspecified) | – | inconclusive: 10 µM [signal inhibitor, partial curve]
CCC(=O)N1CCc2cc(S(=O)(=O)CCC(=O)Nc3ccc(Cl)c(C(F)(F)F)c3)ccc21 | inconclusive: 4.59% [signal inhibitor] | –
O=C1C(=O)c2ccccc2C(O)=C1Cc1ccccc1 | inactive: 1.79% [at 11.4 µM, scaled: untreated 0%, proteasome inhibitor 100%] | –
Cc1ccc(-c2cn3c(n2)CCCC3)cc1 | inactive | –
COc1cc(-c2cc(C(=O)N3CCN(c4ccccn4)CC3)c3ccccc3n2)cc(OC)c1OC | inconclusive: 14.2% [signal inhibitor] | –
Cc1cc(O)c(C(C)C)cc1N=Cc1ccccc1O | inactive: 3.4% [at 11.4 µM, scaled: untreated 0%, proteasome inhibitor 100%] | –
O=C(NCC(c1ccccc1)c1ccccc1)c1nn(-c2ccccc2Cl)nc1CO | inconclusive: 1.77% [signal inhibitor] | –
Cc1nc2c(C(=O)N(C)Cc3ccccc3)c[nH]n2c(=O)c1Cc1ccc(Cl)cc1 | inactive | –
Cc1ccc(Cl)cc1N1CCN(C(=O)c2ccc3c(c2)N(Cc2ccccc2F)C(=O)c2ccccc2S3(=O)=O)CC1 | inactive | –
CCc1ccc(S(=O)(=O)Nc2ccc(-c3ccc(N4CCCCCC4)nn3)cc2)cc1 | inconclusive: 2.04% [signal inhibitor] | –
CCCCOc1ccc(S(=O)(=O)N2CCN(c3ccccc3OCC)CC2)cc1 | inconclusive: 4.09% [signal inhibitor] | –

SMILES | IkBa stabilization activation | Potency
COc1ccc(Cl)cc1NC(=O)CN(C)S(=O)(=O)c1ccc(Br)s1 | inconclusive: 7.78% [signal inhibitor] | –
Cc1cc2c(c3oc(=O)c4ccccc4c13)CN(Cc1ccc(F)cc1)CO2 | inconclusive: -1.8% [signal inhibitor] | –
O=C(Nc1cccc(Cl)c1)Nc1ccccc1OCc1cc(=O)n2ccccc2n1 | inconclusive: -0.548% [signal inhibitor] | –
Cc1nc(N)c(C#N)c(-c2ccccc2)c1C | inactive | –
COc1cccc(CNC(=O)c2cc(-c3cccc(OC)c3)n[nH]2)c1 | inconclusive: 10.5% [signal inhibitor] | –
O=S(=O)(c1ccc2[nH]c3c(c2c1)CCCCC3)N1CCN(c2ccccc2)CC1 | inconclusive: -0.6% [signal inhibitor] | –
N#CC1(O)CCCCC1 | inactive | –
CCOC(=O)NC(NC(=O)OCC)C(=O)c1ccc(F)cc1 | – | inconclusive: 3.98 µM [signal inhibitor, partial curve]
CC(=O)C1=C(c2ccc(Cl)c(Cl)c2)N(C(C)=O)n2c(C)nnc2S1 | – | inconclusive: 31.6 µM [rising, single point]
CCCc1nnc2n1N=C(c1ccc(-c3cc(Cl)ccc3Cl)o1)CS2 | – | inconclusive: 25.1 µM [signal inhibitor, partial curve]
CCCSCCCNC(=O)CN1C(=O)COc2ccc(S(=O)(=O)N3CCC(C)CC3)cc21 | inactive | –
Cc1cccc(C)c1NC(=O)c1oc2c(c1C)-c1nn(Cc3ccccc3)cc1CC2 | inconclusive: -0.325% [signal inhibitor] | –
CCN(CC)CCCNC(=O)Cn1nc(N2CCN(c3ccccc3OC)CC2)ccc1=O | inactive | –
Oc1ccc(-c2nnc(-c3ccc(O)cc3)nn2)cc1 | inconclusive: -11.9% [signal inhibitor] | –
O=C(Cn1ncc2c3ccccc3n(Cc3ccccc3F)c2c1=O)NCCc1ccc(Cl)cc1 | inconclusive: 0.589% [signal inhibitor] | –
COc1cccc(CNC(=O)CSc2c3c(nc4ccc(Cl)cc24)CCCC3)c1OC | – | inconclusive: 20 µM [signal inhibitor, single point]
CN1CCc2c(sc(NC(=O)c3ccc(S(=O)(=O)N4CCOCC4)cc3)c2C(N)=O)C1 | inactive | –
Cc1ccccc1Nc1nnc(-c2ccc(C)c(S(=O)(=O)N3CCOCC3)c2)c2ccccc12 | inconclusive: 4.3% [signal inhibitor] | –
Cc1cccc(N2CCN(C(=O)C3CCN(S(=O)(=O)c4cccs4)CC3)CC2)c1C | inconclusive: 1.96% [signal inhibitor] | –
COc1ccc(OC)c(NC(=O)Cn2cnc3c(oc4ccccc43)c2=O)c1 | inconclusive: 1.88% [signal inhibitor] | –
C1COC(NC(C2CC2)C2CC2)=N1 | – | inconclusive: 39.8 µM [rising, single point]
Cc1ccc(CNC(=O)CN(c2ccc(Cl)cc2Cl)S(=O)(=O)c2ccccc2)cc1 | inconclusive: 1.96% [signal inhibitor] | –

— PubChem BioAssay AID445 (National Center for Advancing Translational Sciences (NCATS), 2006)
